# Reference: article PMC5700166
# This is a selection; strong and weak results do not stand in their true shares. The list includes weakly bound sequences.
# How the values were obtained:
# Assay in all cases: protein-binding microarray (PBM)
# Details in all cases: PBM: ~300 nM protein, 6 mM HEPES pH 7.8, 80 mM KCl, 0.5 mM EDTA, 0.5 mM EGTA, 6% glycerol, 35 ng/ul poly-dIdC, 1% milk, 1 h, room temperature; Ap Aiptasia and Nv Nematostella (sea anemones) / Co Capsaspora / Aq Amphimedon (sponge) / Dm Drosophila / Hu human; RHD is the Rel homology domain; high values mean tight binding; most listed sequences are background and not binding sites; double strand, one strand shown
# [1] = biological target: T1, GST-Ap-NF-kB RHD (UniProt A0A913YAJ5)
# T1 sequence: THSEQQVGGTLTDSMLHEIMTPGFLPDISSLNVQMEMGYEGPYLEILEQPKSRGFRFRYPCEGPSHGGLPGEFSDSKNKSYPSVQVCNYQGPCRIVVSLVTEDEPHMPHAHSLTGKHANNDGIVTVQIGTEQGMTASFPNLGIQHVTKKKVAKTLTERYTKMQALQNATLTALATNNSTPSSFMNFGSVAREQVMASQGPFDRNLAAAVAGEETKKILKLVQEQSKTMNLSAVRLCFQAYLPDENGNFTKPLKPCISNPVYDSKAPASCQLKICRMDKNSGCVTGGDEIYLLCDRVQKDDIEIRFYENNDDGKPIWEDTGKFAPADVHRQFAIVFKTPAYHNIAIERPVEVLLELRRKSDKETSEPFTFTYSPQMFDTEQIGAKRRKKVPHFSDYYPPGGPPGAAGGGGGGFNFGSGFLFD
# [2] = biological target: T2, GST-Nv-NF-kB (Cys allele) (UniProt E5G601)
# T2 sequence: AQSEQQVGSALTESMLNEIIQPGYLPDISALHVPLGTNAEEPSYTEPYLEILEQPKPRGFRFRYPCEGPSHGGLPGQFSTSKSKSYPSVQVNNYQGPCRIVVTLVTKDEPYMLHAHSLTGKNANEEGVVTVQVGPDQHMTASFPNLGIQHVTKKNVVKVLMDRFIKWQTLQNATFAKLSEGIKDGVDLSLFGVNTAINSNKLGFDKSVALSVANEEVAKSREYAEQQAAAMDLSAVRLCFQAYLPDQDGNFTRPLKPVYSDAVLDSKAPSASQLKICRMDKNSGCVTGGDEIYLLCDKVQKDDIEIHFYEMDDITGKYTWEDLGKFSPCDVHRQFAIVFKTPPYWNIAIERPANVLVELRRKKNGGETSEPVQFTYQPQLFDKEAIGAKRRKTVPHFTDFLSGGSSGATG
# [3] = biological target: T3, GST-Co-NF-kB (UniProt F1ARL5)
# T3 sequence: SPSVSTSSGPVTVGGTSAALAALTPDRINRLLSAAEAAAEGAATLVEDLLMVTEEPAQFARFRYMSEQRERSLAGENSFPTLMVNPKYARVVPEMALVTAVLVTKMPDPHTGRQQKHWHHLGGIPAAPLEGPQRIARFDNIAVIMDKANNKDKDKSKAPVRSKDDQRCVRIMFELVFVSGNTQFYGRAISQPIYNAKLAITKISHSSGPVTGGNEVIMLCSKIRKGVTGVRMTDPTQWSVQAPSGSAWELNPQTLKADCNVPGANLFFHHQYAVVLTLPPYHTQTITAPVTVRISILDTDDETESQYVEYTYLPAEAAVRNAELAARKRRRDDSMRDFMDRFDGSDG
# [4] = biological target: T4, GST-Dm-Relish (UniProt Q94527)
# T4 sequence: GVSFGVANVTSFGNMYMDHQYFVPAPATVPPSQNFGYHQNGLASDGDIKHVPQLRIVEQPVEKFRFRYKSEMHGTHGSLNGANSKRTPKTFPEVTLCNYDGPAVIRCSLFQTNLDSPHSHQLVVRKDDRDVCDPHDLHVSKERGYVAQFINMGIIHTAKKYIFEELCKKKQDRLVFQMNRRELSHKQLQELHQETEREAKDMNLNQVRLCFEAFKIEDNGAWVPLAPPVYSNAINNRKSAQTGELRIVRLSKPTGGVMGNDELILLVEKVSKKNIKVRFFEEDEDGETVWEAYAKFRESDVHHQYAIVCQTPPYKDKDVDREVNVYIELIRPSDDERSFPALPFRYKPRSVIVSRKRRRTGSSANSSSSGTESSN
# [5] = biological target: T5, GST-Aq-NF-kB (UniProt A9Y5G7)
# T5 sequence: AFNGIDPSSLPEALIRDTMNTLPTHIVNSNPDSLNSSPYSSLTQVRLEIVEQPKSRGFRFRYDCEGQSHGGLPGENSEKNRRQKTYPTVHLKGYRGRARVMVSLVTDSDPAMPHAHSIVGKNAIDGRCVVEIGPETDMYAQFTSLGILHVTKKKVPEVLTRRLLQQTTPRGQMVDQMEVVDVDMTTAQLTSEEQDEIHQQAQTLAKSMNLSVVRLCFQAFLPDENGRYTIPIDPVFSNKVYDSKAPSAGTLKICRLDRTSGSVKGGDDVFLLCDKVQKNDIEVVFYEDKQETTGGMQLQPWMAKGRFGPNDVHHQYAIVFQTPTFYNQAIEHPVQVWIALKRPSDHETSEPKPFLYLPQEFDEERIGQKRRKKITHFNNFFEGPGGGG
Sequence,binding signal [1] [z-score],binding signal [2] [z-score],binding signal [3] [z-score],binding signal [4] [z-score],binding signal [5] [z-score]
CCGATTAACATCAGGGAAATCCCTGATGTTAATCGGGTCTTGATTCGCTTGACGCTGCTG,9.75,11.4,4.02,10.3,10.9
CCGATTAACATCACGTGCTTTCCTGATGTTAATCGGGTCTTGATTCGCTTGACGCTGCTG,0.279,0.222,0.492,2.88,1.36
CCGATTAACATCACTTGCGCTATTGATGTTAATCGGGTCTTGATTCGCTTGACGCTGCTG,0.085,0.065,-0.0207,-0.159,-0.325
CCGATTAACATCATATATCGACGTGATGTTAATCGGGTCTTGATTCGCTTGACGCTGCTG,-0.438,-0.361,-0.071,-0.102,-0.395
CCGATTAACATCATACGAGCAGTTGATGTTAATCGGGTCTTGATTCGCTTGACGCTGCTG,-0.191,-0.162,0.16,-0.652,-0.468
CCGATTAACATCATTGGCGGTCATGATGTTAATCGGGTCTTGATTCGCTTGACGCTGCTG,-0.0652,0.0868,-0.444,-0.783,-0.151
CCGATTAACATCATCCGCCCTCCTGATGTTAATCGGGTCTTGATTCGCTTGACGCTGCTG,0.52,-0.135,0.873,-0.612,-0.144
CCGATTAACATCAGCCACTCTGATGATGTTAATCGGGTCTTGATTCGCTTGACGCTGCTG,-0.156,-0.677,-0.155,-0.486,-0.22
CCGATTAACATCATATACTGGAATGATGTTAATCGGGTCTTGATTCGCTTGACGCTGCTG,-0.373,-0.657,0.778,-0.0158,0.0953
CCGATTAACATCACAGATTTTCCTGATGTTAATCGGGTCTTGATTCGCTTGACGCTGCTG,-0.206,-0.0122,0.556,0.117,0.434
CCGATTAACATCACCTTGTGATCTGATGTTAATCGGGTCTTGATTCGCTTGACGCTGCTG,0.0776,-0.389,-0.118,0.284,0.125
CCGATTAACATCAAAGATTCAGCTGATGTTAATCGGGTCTTGATTCGCTTGACGCTGCTG,-0.649,-0.313,-0.873,-0.655,-0.776
CCGATTAACATCAAGTACCAGGGTGATGTTAATCGGGTCTTGATTCGCTTGACGCTGCTG,1.05,-0.376,0.708,1,0.569
CCGATTAACATCAGTTCGGGCCGTGATGTTAATCGGGTCTTGATTCGCTTGACGCTGCTG,-0.0835,-0.966,-1.09,-0.7,-0.306
CCGATTAACATCACGGGTCACTCTGATGTTAATCGGGTCTTGATTCGCTTGACGCTGCTG,0.362,0.208,0.875,-0.307,0.00597
CCGATTAACATCACGACCAACCGTGATGTTAATCGGGTCTTGATTCGCTTGACGCTGCTG,-0.396,0.324,-0.436,0.0455,-0.346
CCGATTAACATCAAATCATCAGATGATGTTAATCGGGTCTTGATTCGCTTGACGCTGCTG,-0.514,-0.717,-0.96,-1.24,-0.482
CCGATTAACATCAGAAACATTCCTGATGTTAATCGGGTCTTGATTCGCTTGACGCTGCTG,-0.497,0.182,-0.759,0.0722,0.285
CCGATTAACATCATGCATGCCGGTGATGTTAATCGGGTCTTGATTCGCTTGACGCTGCTG,0.113,-0.206,-0.698,0.966,0.0597
CCGATTAACATCACGTTGCAAATTGATGTTAATCGGGTCTTGATTCGCTTGACGCTGCTG,-0.221,-0.531,-0.468,-0.36,-0.15

Sequence,binding signal [1] [z-score],binding signal [2] [z-score],binding signal [3] [z-score],binding signal [4] [z-score],binding signal [5] [z-score]
CCGATTAACATCAGCCGGTTCGATGATGTTAATCGGGTCTTGATTCGCTTGACGCTGCTG,-0.138,-0.791,-1.03,-0.817,-0.411
CCGATTAACATCAGGGAATTCCCTGATGTTAATCGGGTCTTGATTCGCTTGACGCTGCTG,12,12.7,7.25,10,12.2
CCGATTAACATCAGAGAGACACTTGATGTTAATCGGGTCTTGATTCGCTTGACGCTGCTG,-0.862,-0.5,-0.636,-0.577,-0.488
CCGATTAACATCAATTGGGTTCCTGATGTTAATCGGGTCTTGATTCGCTTGACGCTGCTG,-0.107,-0.395,-0.112,0.109,-0.157
CCGATTAACATCACCAGGGTCCTTGATGTTAATCGGGTCTTGATTCGCTTGACGCTGCTG,-0.0562,-1.07,0.0911,0.09,0.0627
CCGATTAACATCACCGAGTTAGTTGATGTTAATCGGGTCTTGATTCGCTTGACGCTGCTG,0.331,1.15,0.423,0.524,-0.0985
CCGATTAACATCACATATCAATGTGATGTTAATCGGGTCTTGATTCGCTTGACGCTGCTG,-1.59,-0.634,-0.875,-0.0626,-0.424
CCGATTAACATCACATGATCCTATGATGTTAATCGGGTCTTGATTCGCTTGACGCTGCTG,-0.173,-0.265,-0.433,-0.295,-0.436
CCGATTAACATCACTCCTGGGTGTGATGTTAATCGGGTCTTGATTCGCTTGACGCTGCTG,-0.141,0.318,0.659,0.251,-0.209
CCGATTAACATCAGGAAAATCTATGATGTTAATCGGGTCTTGATTCGCTTGACGCTGCTG,0.0778,-0.26,0.684,0.44,0.555
CCGATTAACATCAGGAATGGCCATGATGTTAATCGGGTCTTGATTCGCTTGACGCTGCTG,-0.582,-0.392,-0.568,-0.464,-0.0489
CCGATTAACATCAGGCCGCCCGCTGATGTTAATCGGGTCTTGATTCGCTTGACGCTGCTG,0.247,-0.34,-0.428,-0.667,-0.266
CCGATTAACATCAGTACCGCGAATGATGTTAATCGGGTCTTGATTCGCTTGACGCTGCTG,0.791,0.538,0.0338,0.363,0.607
CCGATTAACATCACCATGATCGATGATGTTAATCGGGTCTTGATTCGCTTGACGCTGCTG,-0.246,-0.287,0.193,-0.0994,-0.32
CCGATTAACATCATCCATAGTGCTGATGTTAATCGGGTCTTGATTCGCTTGACGCTGCTG,-0.242,-0.555,-0.424,-0.386,-0.433
CCGATTAACATCAGACAAGTTGGTGATGTTAATCGGGTCTTGATTCGCTTGACGCTGCTG,0.18,0.1,-0.575,0.0614,-0.215
CCGATTAACATCATAATTTCCAATGATGTTAATCGGGTCTTGATTCGCTTGACGCTGCTG,-0.546,-0.178,-0.113,-0.156,-0.198
CCGATTAACATCACGTGGATTCCTGATGTTAATCGGGTCTTGATTCGCTTGACGCTGCTG,-0.3,-0.498,0.374,1.66,0.488
CCGATTAACATCAATTCTAGTGGTGATGTTAATCGGGTCTTGATTCGCTTGACGCTGCTG,0.334,-0.265,0.767,0.153,-0.402
CCGATTAACATCACGTATCACCGTGATGTTAATCGGGTCTTGATTCGCTTGACGCTGCTG,0.143,0.0719,-0.803,0.676,-0.561
